Source: the supplement of paper PMC4466236
Whole data set: some 33,000 sequences, median “E-score (dimensionless, -0.5 to 0.5)” near -0.058, cut for the highest 2% near 0.35. Some of the results follow.

test system: MvaT; assay: PBM 8-mer E-score (mean of HK and ME arrays) (E-score (dimensionless, -0.5 to 0.5)); higher = stronger relative binding preference; most listed sequences are background and not binding sites
Outline: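 Full-length P. aeruginosa MvaT carrying an N-terminal glutathione S-transferase tag was tested by protein binding microarray following a previously described protocol. Two universal double-stranded 60-mer arrays, ME and HK, were used, each with a constant 25-mer primer region and a variable 35-mer region covering all 8-mers. The rank-based E-score is the mean of the two arrays, parsed with a custom script. Its range runs from -0.5 to 0.5 for each 8-mer.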

Row | Sequence | PBM 8-mer E-score
1 | GTGAGTAA | 0.102
2 | AGGGCATA | -0.0648
3 | CGTGTTAC | 0.0568
4 | TACAGGCA | 0.0123
5 | GTGTACAC | 0.0349
6 | CCTGTCTC | -0.0679
7 | AAGTGCAC | 0.12
8 | AATAATAC | 0.419
9 | CAATGTAG | 0.114
10 | GACGTAGA | -0.116
11 | AGGTCACC | -0.292
12 | AGCCAGAG | -0.306
13 | AGATCATG | -0.228
14 | ACGCCGGG | -0.17
15 | ACCCAGCT | -0.0885
16 | AGTCATGA | 0.0663
17 | CTCCGTAC | -0.194
18 | CGATAAAG | 0.152
19 | ACACGCTA | 0.113
20 | GCGACTTA | -0.0922
21 | ATGGTAGG | 0.0483
22 | ATTGTGCC | -0.00899

Row | Sequence | PBM 8-mer E-score
23 | CAAAGTCG | -0.05
24 | AGTGGTAG | 0.00056
25 | GCGCGAAC | -0.099
26 | CTTAGGGC | -0.313
27 | CAGTACGA | 0.0694
28 | CTAGATTA | 0.207
29 | ACCGAAAC | -0.143
30 | TCCAACGA | -0.124
31 | TAGTTCGA | 0.233
32 | AACGGGAT | 0.0519
33 | CTATAAAC | 0.223
34 | CTACGCCC | -0.179
35 | CGTTTTAC | -0.0398
36 | CCACCAGG | -0.238
37 | AGTAGGGC | -0.239
38 | ACCCTTTG | -0.137
39 | AGGGATGA | -0.0342
40 | CAGAATTA | 0.202
41 | CAGTGGCA | -0.0859
42 | GTTCCATA | 0.117
43 | ACAAATGT | 0.0847
44 | CAGCAAGG | -0.204

Row | Sequence | PBM 8-mer E-score
45 | GAGGAAGA | -0.133
46 | AAATTTCC | 0.224
47 | AGTAGGAT | -0.047
48 | ATACTAGA | 0.187
49 | TTCCAAAA | 0.182
50 | CGCGGGTA | -0.0527
51 | AACGACTG | -0.101
52 | AGCTGCAT | -0.0375
53 | CACCTACG | -0.0764
54 | ATGAGTTA | 0.0893
55 | ACGTGTAT | 0.137
56 | AACACTAG | 0.00131
57 | ATACGGCA | 0.135
58 | ATCCTCTG | 0.0138
59 | AATTGCAT | 0.243
60 | CTAGATAA | 0.128
61 | CCGCGCTA | -0.12
62 | ATATCAAT | 0.325
63 | ACATCTGA | 0.0482
64 | CGAAGTAA | 0.194
65 | GCGATACA | -0.0291
66 | ATGGCCCC | -0.275

Row | Sequence | PBM 8-mer E-score
67 | ATCTGGGG | -0.296
68 | CGTAAGAC | -0.107
69 | GCGTCCCA | -0.164
70 | AAAGCCCT | -0.263
71 | TAGTATAA | 0.384
72 | AACCTCCG | -0.234
73 | TGAAACAA | 0.196
74 | TACGCAGA | -0.0765
75 | ATCCATGC | -0.188
76 | CCAACGTA | -0.0592
77 | CCCTGAGA | -0.276
78 | CGAGGCCC | -0.217
79 | GGACAACC | -0.234
80 | CTAACGAC | -0.0501
81 | ACTGTGCC | -0.156
82 | AAGATCCG | -0.0782
83 | GGTTTAGA | 0.0324
84 | ATAGGGTC | -0.131
85 | AGGTAGAC | -0.0804
86 | CGAAAGCA | -0.103
